The text below walks through data of ChEMBL document CHEMBL4888484, “Replenishing the malaria drug discovery pipeline: Screening and hit evaluation of the MMV Hit Generation Library 1 (HGL1) against asexual blood stage Plasmodium falciparum ,using a nano luciferase reporter read-out” (2022).

What is called % Inhibition is the change of the read-out against control, counted positive when it falls.

Molecules are shown by their SMILES. Out of some 4,800 compounds screened, about 420 (8.8%) showed an effect of 50% or more. The list shows a part of the results.

The subject of this assay is Plasmodium falciparum. Description: Confirmatory screen in NF54 nanoGlo assay, in single point, at 2uM, 72h. In kind it is functional, Erythrocyte. The note with it: timepoint 72 hour.
On to `Cc1csc(CNC(=O)C(=O)Nc2ccc3c(c2)C(=O)N(C)C3=O)n1`, for which the “% Inhibition” value is given as -1%.

On to `COc1cccc(OS(=O)(=O)Cc2ccon2)c1`, for which the “% Inhibition” value stood at 1%.

As to `Cn1cnn(CC(=O)N2CCc3sccc3C2)c1=O`, the “% Inhibition” value came to 3%.

With `CCOc1ccc(C(N)=O)cc1Br`, the “% Inhibition” value is on record as -5%.

Turning to `Cc1ccc(CNC(=O)C[C@H]2CCS(=O)(=O)C2)cc1`, the “% Inhibition” value was -17%.

On to `Cn1ccc2cccc(NC(=O)N3CC(C)(CO)C3)c21`, for which the “% Inhibition” value is 1%.

`O=c1[nH]c(=O)n(Cc2cc(Cl)cc3c2OCOC3)cc1Cl`: the “% Inhibition” value was determined as 0%.

Turning to `CC1CN(Cc2ccccc2)CC(C)C1NC(=O)c1ccncc1F` (configuration not stated), the “% Inhibition” value is -4%.

`CC(C)(C)C(=O)N1CCC(O)(CS(=O)(=O)Cc2ccccc2)CC1`: the “% Inhibition” value was 2%.

As to `c1ccc(-c2nc(C[n+]3ccc4c(c3)CCCC4)cs2)cc1`, the “% Inhibition” value is 57%.

Take `NC(=NCc1cccc2cccnc12)N1CCN(c2nccs2)CC1`: the “% Inhibition” value is on record as 57%.

With `COc1ccc2c(c1)[n+](CC(=O)c1ccc(-c3ccc(Br)cc3)cc1)c(CO)n2C`, the “% Inhibition” value came to 46%.

Turning to `CCOc1cc(CNCCN2CCOCC2)cc(Cl)c1OCc1ccccc1`, the “% Inhibition” value is given as -1%.

In the case of `O=C(Cn1cccc1-c1nc(-c2ccc(F)c(Br)c2)no1)N1CCc2ccccc2C1`, the “% Inhibition” value is 1%.

As for `O=C([C@@H]1CNc2ccccc2O1)N1CCOCC1`, the “% Inhibition” value is reported as -1%.

In the case of `C[C@@H]1CN(CCN(C)C(=O)Nc2nc(C3CC3)cs2)C[C@H](C)O1`, the “% Inhibition” value worked out at 8%.

For `CC1CCC(N(C)C(=O)c2cc(S(=O)(=O)N3CCCCC3)ccc2N2CCCC2)CC1` (configuration not stated), the “% Inhibition” value is on record as -22%.

For `O=S(=O)(N[C@H](c1nccs1)C1CC1)c1c(F)cccc1Cl`, the “% Inhibition” value came out at 0%.

Consider `Cc1ccc(-c2cc(O)cc(CC[C@H]3CCCCN3)c2)c(C)n1`, for which the “% Inhibition” value was 53%.

Turning to `Cc1ccc(S(=O)(=O)Cc2nc(-c3ccc(C(=O)Nc4ccc(C)cc4Cl)cc3)oc2C)cc1`, the “% Inhibition” value turned out to be 5%.

`Cn1c(CNC(=O)NCc2cc(Cl)c(Cl)n2C)cc(Cl)c1Cl`: the “% Inhibition” value was 5%.

Take `CCC(=O)NCCNC(=O)c1ccco1`: the “% Inhibition” value is recorded as 6%.

Consider `CCCN1CCN(S(=O)(=O)c2cccc3nonc23)CC1`, for which the “% Inhibition” value was found to be 3%.

In the case of `Cc1nsc(N2CCCC(C(C)NC(=O)OC(C)(C)C)C2)n1` (configuration not stated), the “% Inhibition” value is listed as -7%.

Regarding `COc1nc(N2[C@@H]3CC[C@H]2C[C@@H](OC)C3)ncc1F`, the “% Inhibition” value was determined as 62%.

For the molecule `CS(=O)(=O)CC1(CC(=O)N[C@H](c2ccccc2)C2CCC2)CC1`, the “% Inhibition” value stood at 5%.

Consider `Cc1nsc2ncc(C(=O)N3CCC(C)CC3)c(N3CCC(C(=O)Nc4cc(F)ccc4F)CC3)c12`, for which the “% Inhibition” value is given as 60%.

For the molecule `Cc1cncc(C=Cc2c(Cl)cccc2Cl)n1`, the “% Inhibition” value is -15%.

On to `CCC(CC)N1CC(C(=O)NC2COc3ccc(C)cc32)CC1=O` (configuration not stated), for which the “% Inhibition” value is on record as -10%.

For `Cc1c(C(=O)N2CC[C@H](CC(C)(C)C)C2(C)C)nnn1-c1cnn(C)c1`, the “% Inhibition” value was -10%.

Regarding `CCN1CCN(c2nc3ncn(CC(=O)NCCc4ccc(Cl)cc4)c(=O)c3s2)CC1`, the “% Inhibition” value was determined as 25%.

With `CC(C)c1ccc(-c2nc(CNc3cc4c(cc3Cl)NC(=O)CO4)cs2)cc1`, the “% Inhibition” value is reported as -3%.

Consider `Cc1cccc(NS(=O)(=O)c2ccc3nncn3c2)c1`, for which the “% Inhibition” value is given as -16%.

On to `Cc1nn(C)c(NC(=O)c2ccc(Cl)cc2)c1C1=CCCCC1`, for which the “% Inhibition” value is reported as -10%.

Consider `COc1ccc(NC(=O)[C@@H](c2cc(OC)c(OC)c(OC)c2)N(Cc2ccccc2)C(=O)Cn2nnc3ccccc32)cc1`, for which the “% Inhibition” value is on record as -11%.

For the molecule `CCOC(=O)C(F)(F)[C@@H](NCC(=O)OC)C1CC1`, the “% Inhibition” value was -15%.

As to `CN(C(=O)c1n[nH]c2c1CCC2)[C@H]1CCCc2c1cnn2C`, the “% Inhibition” value was -13%.

Consider `CN1CCOC(C(=O)NC(c2c(F)cccc2F)C(F)(F)F)C1` (configuration not stated), for which the “% Inhibition” value is -1%.

In the case of `Cn1cc(-c2ccc(Cl)cc2)c2ncn(CC(=O)Nc3cccc(Cl)c3)c(=O)c21`, the “% Inhibition” value is reported as -5%.

On to `N#Cc1ccc(N2CCN3C(=O)NCC3C2)nc1N1CCN2C(=O)NCC2C1` (configuration not stated), for which the “% Inhibition” value is reported as -12%.

`COc1cc(N2CCn3c(nc4cc(Cl)ccc43)C2)ccc1NC(=O)c1ccccc1OC`: the “% Inhibition” value stood at 4%.

Turning to `CCCCc1cc(NC(=O)c2cnc(C)cn2)on1`, the “% Inhibition” value is on record as -6%.

Turning to `CCOc1cc(=O)c(C(=O)N2CCCCC2)nn1-c1ccc(OC)cc1`, the “% Inhibition” value is recorded as -19%.

`O=C(NCCN1CCCC1)c1ccc2c(c1)OCCO2`: the “% Inhibition” value was -12%.

With `O=C(Nc1ccccc1Cl)N1CCC(N2CCc3sccc3C2)CC1`, the “% Inhibition” value was 37%.

As for `CC1CCC2(CC1)N=C(c1ccc(Cl)c(Cl)c1)C(=O)N2` (configuration not stated), the “% Inhibition” value came out at 7%.

On to `CN(C)c1ccc(C2OCC3(CCC4(COC(c5ccc(N(C)C)cc5)OC4)O3)CO2)cc1` (configuration not stated), for which the “% Inhibition” value is recorded as -5%.

In the case of `O=S(=O)(Cc1ccno1)NCCc1ccccc1OC(F)F`, the “% Inhibition” value is recorded as 2%.

`Cn1ncc2c(N3CC(=O)N(C4CC4)C3)ncnc21`: the “% Inhibition” value is recorded as -13%.

As to `O=C(c1cccc(COc2ccc(Br)cc2)c1)N1CCN(Cc2ccccc2)CC1`, the “% Inhibition” value was -13%.

In the case of `COC(=O)c1ccc(Nc2nc(C)c3nc(C)n(-c4ccc(C(=O)OC)cc4)c3n2)cc1`, the “% Inhibition” value is reported as -1%.

Regarding `CCOc1cc([C@H]2Nc3ccccc3C(=O)N2c2ccccc2)ccc1OCc1ccc(F)cc1`, the “% Inhibition” value was -9%.

As for `Cc1ccc(C(=O)N2CC(n3cnnc3C)C2)cc1F`, the “% Inhibition” value is -19%.

With `C[C@H](NCc1cc(C(N)=O)cs1)c1cccc(Cl)c1`, the “% Inhibition” value was 0%.

Consider `CCOc1ncc(Br)cc1C(=O)O`, for which the “% Inhibition” value was -17%.

For `COc1cccc2c1N(CC(=O)NCC(F)(F)F)CC[C@@H]2C`, the “% Inhibition” value is given as 0%.

Consider `CC[C@@H](Cc1ccccc1Br)C(=O)NCCC(N)=O`, for which the “% Inhibition” value is reported as -8%.

For `O=C(c1ccccc1F)N(Cc1nccn1Cc1ccccc1F)CC1CC1`, the “% Inhibition” value is 20%.

`C[C@@H](C(=O)Nc1cccc2ccccc12)N1CCCCC1`: the “% Inhibition” value is given as 0%.

In the case of `CCN(c1ccc(C(=O)Nc2cnc3[nH]nc(C)c3c2)cn1)C(C)C`, the “% Inhibition” value was found to be 6%.

Regarding `CCCOC(=O)c1cc(NC(=O)c2ccc3ccccc3c2)ccc1N1CCOCC1`, the “% Inhibition” value is -8%.

For `CC(C)(C)[C@H](Cn1cccn1)NC(=O)Cn1nc(C(F)F)c2c1CCC2`, the “% Inhibition” value was -4%.

As to `O=C(Cn1cnc2ccc(Cl)cc2c1=O)NCc1ccc2c(c1)OCO2`, the “% Inhibition” value is listed as -5%.

In the case of `CC1(C)Oc2ccc(NC(=O)COc3ccccc3)cc2NC1=O`, the “% Inhibition” value is 11%.

With `Cc1n[nH]cc1Nc1ccnc(C(C)(C)C)n1`, the “% Inhibition” value is on record as 2%.

In the case of `C[C@H](Oc1ccccc1Cl)/C(N)=N\O`, the “% Inhibition” value is -5%.

In the case of `COc1ccc(Nc2ncc(Cc3ccccc3C)s2)cc1`, the “% Inhibition” value is recorded as 5%.

With `CN(c1ccc2nnnn2n1)C1CCCCC1`, the “% Inhibition” value was -4%.

On to `Cn1ccnc(NC(=O)N(Cc2c(F)cccc2F)C2CC2)c1=O`, for which the “% Inhibition” value is on record as -15%.

Regarding `Cc1ccc(Cl)c(OCn2ccc(C(=O)Nc3ccc(Br)cn3)n2)c1`, the “% Inhibition” value is listed as -16%.

With `CCOC(=O)[C@@H](N1CCCC1=O)n1c(=O)[nH]cc(C)c1=O`, the “% Inhibition” value was -12%.

Consider `O=C(c1cncnc1)N1C[C@H]2CCCC(=O)N(Cc3ccccc3)[C@H]2C1`, for which the “% Inhibition” value is listed as 2%.

As to `CC(C)OC(=O)N1C(=O)c2ccccc2NC1(C(F)(F)F)C(F)(F)F`, the “% Inhibition” value is given as -22%.

Take `Cc1cccc(NC(=O)Cn2ccc(C(=O)Nc3cccc(C)c3C)n2)c1C`: the “% Inhibition” value was -12%.

Take `CN1CCC(NCC[C@@H](Cc2ccccc2Cl)c2ccc(Cl)cc2)CC1`: the “% Inhibition” value is 82%.

Take `COc1ccc(-n2ncc3c(NCCNC(=O)c4ccccc4Cl)nc(C)nc32)cc1`: the “% Inhibition” value is on record as -12%.

`Cc1cccc(N2C(=O)C3CC3C2=O)c1` (configuration not stated): the “% Inhibition” value turned out to be 1%.

Take `CCN1CCN(c2nc3ncn(CC(=O)NCCCc4ccccc4)c(=O)c3s2)CC1`: the “% Inhibition” value is -4%.

On to `CCOc1cccc2c1OC1(C)C(C(=O)Nc3ccc(C)cc3C)C2NC(=O)N1c1ccccc1` (configuration not stated), for which the “% Inhibition” value is given as -7%.

As for `CC(=O)C1(C(C)=O)[C@H](c2ccc(F)cc2)C1(C#N)C#N`, the “% Inhibition” value was -15%.

As to `CC(=O)Nc1cccc(NC(=O)[C@H]2CC[C@H](Cn3c(O)nc4ccccc4c3=O)CC2)c1`, the “% Inhibition” value is recorded as -1%.

Regarding `CC1(CCCCNC(=O)N2CC[C@H](S(C)(=O)=O)C2)OCCO1`, the “% Inhibition” value is on record as -1%.

Regarding `Cc1nccn1[C@H]1[C@@H]2OC[C@@H](O2)[C@@H](NCc2ccncc2Cl)[C@@H]1O`, the “% Inhibition” value came to 1%.

Consider `O=C(c1cccc(O)c1)N1CCC(OCc2ccccc2F)CC1`, for which the “% Inhibition” value is on record as -1%.

Regarding `O=C1NCCCc2nn(Cc3cc(F)ccc3Br)cc21`, the “% Inhibition” value is reported as -12%.

With `Nc1c(-c2nc3ccccc3[nH]2)c2nc3ccccc3nc2n1Cc1ccccc1F`, the “% Inhibition” value stood at 64%.

`Cc1nn(C)c(C)c1S(=O)(=O)Nc1ncc(C(C)C)s1`: the “% Inhibition” value is -1%.

On to `CCCCCC(=O)Nc1ccccc1Cl`, for which the “% Inhibition” value is recorded as 8%.

For `Cc1cc(NC(=O)c2cccc(S(=O)(=O)NC3CC3)c2)no1`, the “% Inhibition” value is -8%.

Consider `O=C(Nc1ncn(C[C@@H](COC(=O)c2ccc(F)cc2)OC(=O)c2ccc(F)cc2)c2ncnc1-2)c1ccc(F)cc1`, for which the “% Inhibition” value is recorded as -15%.

As for `CN(C)CCOC(=O)CC[C@H]1CCOC(C)(C)C1`, the “% Inhibition” value stood at 1%.

In the case of `O=C(O)COc1ccccc1[C@H]1CC(O)=Nc2cccc3c2c1cn3Cc1cccc(F)c1`, the “% Inhibition” value is given as 1%.

With `CC(C)NC(=O)c1ccc(CN2C(=O)COc3ccc(C(=O)COc4ccc(F)c(F)c4)cc32)o1`, the “% Inhibition” value is 4%.

Turning to `CC(C)(C)CCN1CCN(S(=O)(=O)C[C@H]2CCCS(=O)(=O)C2)CC1`, the “% Inhibition” value is recorded as -3%.

As to `Cc1cc(N2CCC3(CCCN3Cc3cc(C#N)n(C)c3C)CC2)c2ccccc2n1`, the “% Inhibition” value stood at 42%.

For the molecule `COc1cccc(-c2nc3n(c2C(=O)Nc2ccccc2C#N)CCS3(=O)=O)c1`, the “% Inhibition” value is 3%.

For `Fc1ccc(OCc2nccc(-c3ccc4c(c3)OCO4)n2)cc1`, the “% Inhibition” value was found to be 4%.

With `Cc1ccc(-c2csc(NC(=O)c3cccc(C(=O)Nc4nc(-c5ccc(C)cc5C)cs4)n3)n2)c(C)c1`, the “% Inhibition” value was -1%.

Take `COc1cc(NC(=O)N[C@@H](C)C(=O)N2CCc3ccccc32)cc(OC)c1`: the “% Inhibition” value came to 4%.

`CC1CCC(c2noc([C@H]3CCO[C@@H]3c3cncc(Br)c3)n2)CC1` (some centres not stated): the “% Inhibition” value is 52%.

As for `Cc1cc(C)c(NC(=O)c2nnn(CC(=O)NCc3ccc(F)cc3)c2C)c(C)c1`, the “% Inhibition” value was -9%.

For `Cn1nccc1CCNS(=O)(=O)c1c[nH]c2cccc(F)c12`, the “% Inhibition” value worked out at 5%.
